# Some of the results follow.
# B1: ECA (Erythrina cristagalli), P83410 (protein)
# chain: VETISFSFSEFEPGNDNLTLQGAALITQSGVLQLTKINQNGMPAWDSTGRTLYTKPVHMWDSTTGTVASFETRFSFSIEQPYTRPLPADGLVFFMGPTKSKPAQGYGYLGVFNNSKQDNSYQTLAVEFDTFSNPWDPPQVPHIGIDVNSIRSIKTQPFQLDNGQVANVVIKYDAPSKILHVVLVYPSSGAIYTIAEIVDVKQVLPDWVDVGLSGATGAQRDAAETHDVYSWSFQASLPE
# Tests used:
# Test in all cases: glycan array binding signal (z-score within array); higher = stronger binding
# Conditions in all cases: glycan notation: IUPAC condensed, linker removed
# [1] = target: GalNAc3S(b1-4)[Fuc(a1-3)]GlcNAc
# Procedure, shortened: (§1)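 Negative Z-scores can be read as non-binding. The Z-score is calculated within each array and then averaged across arrays of one protein sequence at different concentrations or buffers and across linkers. Arrays, 3228 in all, were curated from the Consortium for Functional Glycomics database and kept only where the protein sequence was available.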
# GalNAc4S6S(b1-4)GlcNAc = target: GalNAc4S6S(b1-4)GlcNAc
# Procedure, shortened: as §1
# GalNAc6S(b1-4)GlcNAc = target: GalNAc6S(b1-4)GlcNAc
# Procedure, shortened: as §1
# Glc(a1-4)Glc = target: Glc(a1-4)Glc
# Procedure, shortened: as §1
# [2] = target: Glc(a1-4)Glc(a1-4)Glc(a1-4)Glc
# Procedure, shortened: as §1
# Glc(a1-6)Glc(a1-6)Glc = target: Glc(a1-6)Glc(a1-6)Glc
# Procedure, shortened: as §1
# [3] = target: Glc(a1-6)Glc(a1-6)Glc(a1-6)Glc
# Procedure, shortened: as §1
# Glc(b1-4)Glc = target: Glc(b1-4)Glc
# Procedure, shortened: as §1
# Glc(b1-6)Glc = target: Glc(b1-6)Glc
# Procedure, shortened: as §1
# GlcA(b1-3)Gal = target: GlcA(b1-3)Gal
# Procedure, shortened: as §1
# GlcA(b1-3)GlcNAc = target: GlcA(b1-3)GlcNAc
# Procedure, shortened: as §1
# GlcA(b1-6)Gal = target: GlcA(b1-6)Gal
# Procedure, shortened: as §1
# [4] = target: GlcA3S(b1-3)Gal(b1-4)GlcNAc(b1-2)Man
# Procedure, shortened: as §1
# [5] = target: GlcA3S(b1-3)Gal(b1-4)GlcNAc(b1-3)Gal(b1-4)Glc
# Procedure, shortened: as §1
# [6] = target: GlcNAc(a1-3)Gal(b1-4)GlcNAc
# Procedure, shortened: as §1
# [7] = target: GlcNAc(a1-4)Gal(b1-3)GlcNAc
# Procedure, shortened: as §1
# [8] = target: GlcNAc(a1-4)Gal(b1-4)GalNAc
# Procedure, shortened: as §1
# [9] = target: GlcNAc(a1-4)Gal(b1-4)GlcNAc
# Procedure, shortened: as §1
# [10] = target: GlcNAc(a1-4)Gal(b1-4)GlcNAc(b1-3)Gal(b1-4)Glc
# Procedure, shortened: as §1
# [11] = target: GlcNAc(a1-4)Gal(b1-4)GlcNAc(b1-3)Gal(b1-4)GlcNAc
# Procedure, shortened: as §1
# [12] = target: GlcNAc(a1-4)Gal(b1-4)GlcNAc(b1-3)Gal(b1-4)GlcNAc(b1-3)Gal(b1-4)GlcNAc
# Procedure, shortened: as §1
# [13] = target: GlcNAc(a1-4)Gal(b1-4)GlcNAc(b1-3)Gal(b1-4)[Fuc(a1-3)]GlcNAc(b1-3)Gal(b1-4)[Fuc(a1-3)]GlcNAc
# Procedure, shortened: as §1
# [14] = target: GlcNAc(a1-6)Gal(b1-4)GlcNAc
# Procedure, shortened: as §1
# [15] = target: GlcNAc(b1-2)Gal(b1-3)GalNAc
# Procedure, shortened: as §1
# [16] = target: GlcNAc(b1-2)Man(a1-3)[GlcNAc(b1-2)Man(a1-6)]Man(b1-4)GlcNAc(b1-4)GlcNAc
# Procedure, shortened: as §1
# [17] = target: GlcNAc(b1-2)Man(a1-3)[GlcNAc(b1-2)Man(a1-6)]Man(b1-4)GlcNAc(b1-4)[Fuc(a1-6)]GlcNAc
# Procedure, shortened: as §1
# [18] = target: GlcNAc(b1-2)Man(a1-3)[GlcNAc(b1-4)][GlcNAc(b1-2)Man(a1-6)]Man(b1-4)GlcNAc(b1-4)GlcNAc
# Procedure, shortened: as §1
# [19] = target: GlcNAc(b1-2)Man(a1-3)[GlcNAc(b1-4)][GlcNAc(b1-2)Man(a1-6)]Man(b1-4)GlcNAc(b1-4)[Fuc(a1-6)]GlcNAc
# Procedure, shortened: as §1
# [20] = target: GlcNAc(b1-2)[GlcNAc(b1-4)]Man(a1-3)[GlcNAc(b1-2)Man(a1-6)]Man(b1-4)GlcNAc(b1-4)GlcNAc
# Procedure, shortened: as §1
# [21] = target: GlcNAc(b1-2)[GlcNAc(b1-4)]Man(a1-3)[GlcNAc(b1-4)][GlcNAc(b1-2)Man(a1-6)]Man(b1-4)GlcNAc(b1-4)GlcNAc
# Procedure, shortened: as §1
# [22] = target: GlcNAc(b1-2)[GlcNAc(b1-4)]Man(a1-3)[GlcNAc(b1-4)][GlcNAc(b1-2)[GlcNAc(b1-6)]Man(a1-6)]Man(b1-4)GlcNAc(b1-4)GlcNAc
# Procedure, shortened: as §1
# [23] = target: GlcNAc(b1-2)[GlcNAc(b1-4)]Man(a1-3)[GlcNAc(b1-4)][GlcNAc(b1-2)[GlcNAc(b1-6)]Man(a1-6)]Man(b1-4)GlcNAc(b1-4)[Fuc(a1-6)]GlcNAc
# Procedure, shortened: as §1
# [24] = target: GlcNAc(b1-2)[GlcNAc(b1-6)]Man(a1-6)[GlcNAc(b1-2)Man(a1-3)]Man(b1-4)GlcNAc(b1-4)GlcNAc
# Procedure, shortened: as §1
# [25] = target: GlcNAc(b1-2)[GlcNAc(b1-6)]Man(a1-6)[GlcNAc(b1-2)Man(a1-3)]Man(b1-4)GlcNAc(b1-4)[Fuc(a1-6)]GlcNAc
# Procedure, shortened: as §1
# [26] = target: GlcNAc(b1-2)[GlcNAc(b1-6)]Man(a1-6)[GlcNAc(b1-4)][GlcNAc(b1-2)Man(a1-3)]Man(b1-4)GlcNAc(b1-4)GlcNAc
# Procedure, shortened: as §1
# GlcNAc(b1-3)Fuc = target: GlcNAc(b1-3)Fuc
# Procedure, shortened: as §1
# GlcNAc(b1-3)Gal = target: GlcNAc(b1-3)Gal
# Procedure, shortened: as §1
# [27] = target: GlcNAc(b1-3)Gal(b1-3)GalNAc
# Procedure, shortened: as §1
# GlcNAc(b1-3)Gal(b1-4)Glc = target: GlcNAc(b1-3)Gal(b1-4)Glc
# Procedure, shortened: as §1
# [28] = target: GlcNAc(b1-3)Gal(b1-4)GlcNAc
# Procedure, shortened: as §1
# [29] = target: GlcNAc(b1-3)Gal(b1-4)GlcNAc(b1-2)Man(a1-3)[GlcNAc(b1-3)Gal(b1-4)GlcNAc(b1-2)Man(a1-6)]Man(b1-4)GlcNAc(b1-4)GlcNAc
# Procedure, shortened: as §1
# [30] = target: GlcNAc(b1-3)Gal(b1-4)GlcNAc(b1-2)Man(a1-3)[GlcNAc(b1-3)Gal(b1-4)GlcNAc(b1-2)Man(a1-6)]Man(b1-4)GlcNAc(b1-4)[Fuc(a1-6)]GlcNAc
# Procedure, shortened: as §1
# [31] = target: GlcNAc(b1-3)Gal(b1-4)GlcNAc(b1-2)[GlcNAc(b1-3)Gal(b1-4)GlcNAc(b1-6)]Man(a1-6)[GlcNAc(b1-3)Gal(b1-4)GlcNAc(b1-2)Man(a1-3)]Man(b1-4)GlcNAc(b1-4)GlcNAc
# Procedure, shortened: as §1
# [32] = target: GlcNAc(b1-3)Gal(b1-4)GlcNAc(b1-3)Gal(b1-4)GlcNAc
# Procedure, shortened: as §1
# [33] = target: GlcNAc(b1-3)Gal(b1-4)GlcNAc(b1-3)Gal(b1-4)GlcNAc(b1-2)Man(a1-3)[GlcNAc(b1-3)Gal(b1-4)GlcNAc(b1-3)Gal(b1-4)GlcNAc(b1-2)Man(a1-6)]Man(b1-4)GlcNAc(b1-4)GlcNAc
# Procedure, shortened: as §1
binder,measurement,setting,value
B1,glycan array binding signal (z-score),[1],-0.091
same,glycan array binding signal (z-score),GalNAc4S6S(b1-4)GlcNAc,-0.29
same,glycan array binding signal (z-score),GalNAc6S(b1-4)GlcNAc,-0.415
same,glycan array binding signal (z-score),Glc(a1-4)Glc,-0.148
same,glycan array binding signal (z-score),[2],0.632
same,glycan array binding signal (z-score),Glc(a1-6)Glc(a1-6)Glc,-0.211
same,glycan array binding signal (z-score),[3],0.182
same,glycan array binding signal (z-score),Glc(b1-4)Glc,-0.272
same,glycan array binding signal (z-score),Glc(b1-6)Glc,-0.224
same,glycan array binding signal (z-score),GlcA(b1-3)Gal,-0.186
same,glycan array binding signal (z-score),GlcA(b1-3)GlcNAc,-0.397
same,glycan array binding signal (z-score),GlcA(b1-6)Gal,-0.166
same,glycan array binding signal (z-score),[4],-0.497
same,glycan array binding signal (z-score),[5],-0.186
same,glycan array binding signal (z-score),[6],-0.314
same,glycan array binding signal (z-score),[7],-0.187
same,glycan array binding signal (z-score),[8],-0.282
same,glycan array binding signal (z-score),[9],-0.365
same,glycan array binding signal (z-score),[10],-0.16
same,glycan array binding signal (z-score),[11],-0.344
same,glycan array binding signal (z-score),[12],-0.476
same,glycan array binding signal (z-score),[13],0.036
same,glycan array binding signal (z-score),[14],-0.344
same,glycan array binding signal (z-score),[15],-0.226
same,glycan array binding signal (z-score),[16],-0.242
same,glycan array binding signal (z-score),[17],0.103
same,glycan array binding signal (z-score),[18],-0.636
same,glycan array binding signal (z-score),[19],-0.49
same,glycan array binding signal (z-score),[20],-0.027
same,glycan array binding signal (z-score),[21],-0.374
same,glycan array binding signal (z-score),[22],-0.605
same,glycan array binding signal (z-score),[23],-0.18
same,glycan array binding signal (z-score),[24],0.328
same,glycan array binding signal (z-score),[25],-0.207
same,glycan array binding signal (z-score),[26],-0.483
same,glycan array binding signal (z-score),GlcNAc(b1-3)Fuc,-0.493
same,glycan array binding signal (z-score),GlcNAc(b1-3)Gal,-0.199
same,glycan array binding signal (z-score),[27],-0.287
same,glycan array binding signal (z-score),GlcNAc(b1-3)Gal(b1-4)Glc,-0.286
same,glycan array binding signal (z-score),[28],-0.272
same,glycan array binding signal (z-score),[29],-0.329
same,glycan array binding signal (z-score),[30],-0.112
same,glycan array binding signal (z-score),[31],-0.269
same,glycan array binding signal (z-score),[32],-0.254
same,glycan array binding signal (z-score),[33],3.72

# Reference: the supplement of paper PMC8728848
